Sequences and labels used below:
B1: Caulobacter ParB omega fusion; a variant is named by its letters at X, in order, B8GW30 (parent)
chain: MESVVVGEPGMSEGRRGLGRGLSALLGEVDAAPAQAPGEQLGGSREAPIEILQRNPDQPRRTFREEDLEDLSNSIREKGVLQPILVRPSPDTAGEYQIVAGERAWRAAQRAGLKTVPIMVRELDDLAVLEIGIIENVQRADLNVLEEALSYKVLMEKFERTQENIAQTIGKSXSHVANXMRLLXLPDEVQSYLVSGELTAXHARAIAAAADPVALAKQIIEGGLSVRETEALARKAPNLSAGKSKGGRPPRVKDTDTQALESDLSSVLGLDVSIDHRGSTGTLTITYATLEQLDDLCNRLTRGI

The full ranking holds about 81,000 sequences; the median of “one-hybrid fitness for binding parS DNA” is about -0.17, and the highest 2% start at about 0.51. This is one part of the list.

This experiment covers variants of B1. Kind of experiment: one-hybrid fitness for binding parS DNA (scaled: cognate 1, non-cognate 0); higher = stronger binding. The settings on record: with parS DNA site. An outline of the steps: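 In E. coli USO, a HIS3 reporter with its site placed 19 bp from the promoter was used to select Caulobacter ParB variants randomised at four specificity codons. Growth lasted 48 hours at 37°C on histidine-free M9 containing 0.1 mM IPTG and 5 mM 3-AT. Fitness was taken as the log change in variant-to-wild-type read ratio from Illumina sequencing of pre- and post-selection plasmids, rescaled between the non-cognate and cognate sites.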
Turning to PTEW, the “one-hybrid fitness for binding parS DNA” value was no more than 0.2. Turning to PKES, the “one-hybrid fitness for binding parS DNA” value is no more than 0.2. Regarding YMRR, the “one-hybrid fitness for binding parS DNA” value is no more than 0.2.

In the case of NDEK, the “one-hybrid fitness for binding parS DNA” value was no more than 0.2. With SHSR the figure was no more than 0.2; with QYYM, no more than 0.2. For TDTY, the “one-hybrid fitness for binding parS DNA” value is no more than 0.2. To RNPM belongs no more than 0.2; to PLMD, no more than 0.2. Take NSRW: the “one-hybrid fitness for binding parS DNA” value was no more than 0.2.

On to LKMN, for which the “one-hybrid fitness for binding parS DNA” value was no more than 0.2. With WQSS the figure was no more than 0.2; with GLCD, no more than 0.2. With YFQS the figure was no more than 0.2. To TCRQ belongs no more than 0.2; to KKDR, no more than 0.2; to YEGF, no more than 0.2. For the variant QLHD, the “one-hybrid fitness for binding parS DNA” value was no more than 0.2.

As to RAVE, the “one-hybrid fitness for binding parS DNA” value is no more than 0.2. For RDFY, the “one-hybrid fitness for binding parS DNA” value is no more than 0.2. To ASCR belongs no more than 0.2. To VVCV belongs no more than 0.2; to RTPI, no more than 0.2. With SCRH the figure was no more than 0.2; with LTMN, no more than 0.2; with EPEG, no more than 0.2. As to WDES, the “one-hybrid fitness for binding parS DNA” value is no more than 0.2.

For AGRW, the “one-hybrid fitness for binding parS DNA” value is no more than 0.2. To ETNA belongs no more than 0.2.

As to PDIN, the “one-hybrid fitness for binding parS DNA” value is no more than 0.2. To SIAC belongs no more than 0.2; to QRMC, no more than 0.2. With RWPP the figure was no more than 0.2. With AKGN the figure was no more than 0.2; with AHVL, no more than 0.2. With ATPH, the “one-hybrid fitness for binding parS DNA” value was no more than 0.2.

In the case of SGDW, the “one-hybrid fitness for binding parS DNA” value was no more than 0.2.

Regarding TGHL, the “one-hybrid fitness for binding parS DNA” value is no more than 0.2.

PHTC: the “one-hybrid fitness for binding parS DNA” value is no more than 0.2. To NDYS belongs no more than 0.2; to CAIM, no more than 0.2.

With IAAD, the “one-hybrid fitness for binding parS DNA” value was no more than 0.2. To AVKD belongs no more than 0.2; to YLTD, no more than 0.2; to NANV, no more than 0.2. With QMDE the figure was no more than 0.2. With TQFD the figure was no more than 0.2; with QLHF, no more than 0.2. With ATVT, the “one-hybrid fitness for binding parS DNA” value is no more than 0.2.

With YFTT, the “one-hybrid fitness for binding parS DNA” value is no more than 0.2.

In the case of NRQG, the “one-hybrid fitness for binding parS DNA” value was no more than 0.2. Regarding SEAA, the “one-hybrid fitness for binding parS DNA” value was no more than 0.2. With SLGQ the figure was no more than 0.2; with YDTN, no more than 0.2.

As to TLPC, the “one-hybrid fitness for binding parS DNA” value was no more than 0.2. Turning to SPQC, the “one-hybrid fitness for binding parS DNA” value is no more than 0.2. With LDDG the figure was no more than 0.2; with IHRR, no more than 0.2. To CHSA belongs no more than 0.2. To QKPH belongs no more than 0.2; to RVRN, 0.409. With HKSV, the “one-hybrid fitness for binding parS DNA” value was no more than 0.2. With LCMG the figure was no more than 0.2; with ECSR, no more than 0.2. As to ALSN, the “one-hybrid fitness for binding parS DNA” value was no more than 0.2. To YPRD belongs no more than 0.2. To ACPR belongs no more than 0.2. To HPKR belongs no more than 0.2. Take CFLT: the “one-hybrid fitness for binding parS DNA” value is no more than 0.2. To PWRG belongs no more than 0.2. With HLRH the figure was no more than 0.2; with EYHN, no more than 0.2.

Take VYKQ: the “one-hybrid fitness for binding parS DNA” value is no more than 0.2. To SSLW belongs no more than 0.2. With MHPT the figure was no more than 0.2; with TQKF, no more than 0.2; with LIKF, no more than 0.2.

Take LYMN: the “one-hybrid fitness for binding parS DNA” value is no more than 0.2. To MYIR belongs no more than 0.2; to YLIG, no more than 0.2; to HVKG, no more than 0.2. With RVPF the figure was no more than 0.2; with VSLW, no more than 0.2. To HCVK belongs no more than 0.2; to ERQR, no more than 0.2. As to PKYP, the “one-hybrid fitness for binding parS DNA” value was no more than 0.2. To TTHK belongs no more than 0.2; to QYMI, no more than 0.2.

As to VSLT, the “one-hybrid fitness for binding parS DNA” value was no more than 0.2. For DDVI, the “one-hybrid fitness for binding parS DNA” value was no more than 0.2.

As to ITGG, the “one-hybrid fitness for binding parS DNA” value was no more than 0.2. Turning to GVCL, the “one-hybrid fitness for binding parS DNA” value was no more than 0.2. With DNWC the figure was no more than 0.2; with SGRQ, no more than 0.2; with NEHP, no more than 0.2. For QKDF, the “one-hybrid fitness for binding parS DNA” value was no more than 0.2. Regarding TKRL, the “one-hybrid fitness for binding parS DNA” value was no more than 0.2.

Values taken from a collection of fitness landscapes (doi:10.1016/j.celrep.2020.107928).
